Test results published in paper PMC12136788.
The list shows a part of the results.

B1: chr1:90030187:90030288:+|3pUTR|ENSG00000162664|unk|total|mutant (ssRNA)
RNA: GGGAGUUCUACAGUCCGACGAUCACCCAGUUCAAGUCAUGAUAAUUUCUUGUUAACUAAUCUUGAUUCCACCCUUACCAUGACCGAUUCAGUUUUCUACACAAGUAUAAGCUUUUAAAAAUGUAAUUCAGAUGAUGUUAAUCUCAACAGAGGAUUGAGCAUCA
B2: chr20:3933335:3933436:-|3pUTR|ENSG00000101236|msi1|FALSE|bound_elsewhere (ssRNA)
RNA: GGGAGUUCUACAGUCCGACGAUCUUACAACACCUGCUAUCAAAUCAUCUAAGCUGAAAACAUGAGAUGCGCUUGGAAAGGCCUAGUCAGAAGCCAUUUCCUCUUAUCAUUUCCCUCUCCUAUGCACCAGUAAGGCCCGUCCAGCAACAGAGGAUUGAGCAUCA
B3: chr7:99177919:99178066:-|CDS|ENSG00000185467|control|control|control (ssRNA)
RNA: GGGAGUUCUACAGUCCGACGAUCGAGAAACGGUCUGAGAAGGAAAACCUGUGUCUUCUGAUAGAAGAACUUGGUGGGAUCGAUAGAAUUGAGGCUUUACAGCUGCAUGAGAACCGUCAAAUUGGCCAGUCGGCUUUGAACAUCCAACAGAGGAUUGAGCAUCA
B4: chr20:31606305:31606406:+|3pUTR|ENSG00000125968|msi1|total|mutant (ssRNA)
RNA: GGGAGUUCUACAGUCCGACGAUCUGAGGCACUGGCGAGGAGAGGGCGCUCCUCUCUGCACACCUACCCGUCACCAGAGACUUCCGGGGGUGGGAUUCCACUCGUGUGUUUCUAUUUUUUGAAAAGCAGACAUUUUAAAAAAUGCAACAGAGGAUUGAGCAUCA
B5: chr4:112268257:112268372:+|CDS|ENSG00000138660|unk|FALSE|unique (ssRNA)
RNA: GGGAGUUCUACAGUCCGACGAUCAGUAAUCCUACAUCAGCCUCUGAUGAUUCCAAUGGGCUGGAGUGGGAAAAUGAUUUUGUUAGUGCCGAAAUGGAUGAUAAUGGAAAUUCCGAGUAUUCUGGAUUUGUAAAUCCUGUAUUACAACAGAGGAUUGAGCAUCA
B6: chr6:1612588:1612689:+|3pUTR|ENSG00000054598|msi1|FALSE|unique (ssRNA)
RNA: GGGAGUUCUACAGUCCGACGAUCUUUAUUCAUGGACUUGUUUUAAAAUGUAAAUUGCAACAUAGUAAUUUAUUUUUAAUUUGUAGUUGGAUGUCGUGGACCAAACGCCAGAAAGUGUUCCCAAAACCUGACGUUAAAUUGCCUCAACAGAGGAUUGAGCAUCA
B7: chr2:130338606:130338707:-|3pUTR|ENSG00000136710|unk|FALSE|unique (ssRNA)
RNA: GGGAGUUCUACAGUCCGACGAUCUACUCAGCCAAAAGAUCAGGACAAUAUGACUUGAGUCCACAAGGACACAAACACCUGAGUAGCUGGGCAGCCCUUGGCAGGGUCUAAGCCAGGAAGUAAAAAUGAUCUGGCCUAGAUAUUCAACAGAGGAUUGAGCAUCA
B8: chr16:21983864:21984660:-|three_prime_utr|ENSG00000155714|control|control|control (ssRNA)
RNA: GGGAGUUCUACAGUCCGACGAUCAAAGAAAAUUGAGCUGGCAAAAGAUGAAUCUUUCACAAGCAGUGAUGAUAAUGAAAAUGUAGAUUUAGAUAAAAGACUUCAAUAUUAUAGAUAUCCGUGGUCAACUGUGCAUCACCCUGCCAACAGAGGAUUGAGCAUCA
B9: chr5:111496093:111496242:-|3pUTR|ENSG00000164211|unk|FALSE|unique (ssRNA)
RNA: GGGAGUUCUACAGUCCGACGAUCUUUACAUGUAUAGUUAAAUAUUAAAAUUCAUCUCUUGCAGUUCAAUAAAAGCUAUAGUAUAGAUUUUAUUUUUAAGAAGUUUAUAUAAUUCUUUUGUGAACCAAUAUGUAAAACUAGAAUCAACAGAGGAUUGAGCAUCA
B10: chr14:95709946:95710881:-|three_prime_utr|ENSG00000100721|control|control|control (ssRNA)
RNA: GGGAGUUCUACAGUCCGACGAUCUCUGGGAGGAAUGGACAGACAGAGGAUGAGCUCUACCCAGGGCCUGCAGGACCUGCCUGUAGCCCACUCUGCUCGCCUUAGCACUACCACUCCUGCCAAGGAGGAUUCCAUUUGGCAGAGCAACAGAGGAUUGAGCAUCA
B11: chr2:69942770:69942871:+|3pUTR|ENSG00000059728|unk|FALSE|unique (ssRNA)
RNA: GGGAGUUCUACAGUCCGACGAUCUGUUUCCAGAUGUUUCUUUAUGUAAAUAUGACGCCAAUGUAAAUCCUGUGUCAAGAUCAUAGAGAAUGGUGCUUUUUACUACAGUUAGCACAUGCAUUUUUAGAAACUACUACAUGUUUUCAACAGAGGAUUGAGCAUCA
B12: ENSG00000125170:stop:overlap|stop_codon|ENSG00000125170|stop_codon|NA|stop_codon (ssRNA)
RNA: GGGAGUUCUACAGUCCGACGAUCAGCGGCUGGAGAAGUAUCCAGAUGAGAAGUCGGUGUGCCUCCGGGGCUGCCCCAAGAGCUAGAGGCAGAGGAGUGGUACAAGACACUAUCUGUGGAGUGUCUGGGGUCCCGCCUCAACGACAACAGAGGAUUGAGCAUCA
B13: ENSG00000070961:be:win_5451|3pUTR|ENSG00000070961|bound_else_gene|NA|bound_elsewhere_windowed (ssRNA)
RNA: GGGAGUUCUACAGUCCGACGAUCUGAUAUUUUUGGUGGGUGGGGGAAAUCUUUUUCUCACCAUCAAAUCUUUGCAGUAAUCCUCUGCAGGUCUUAGAAACACAUUGGCUCUGUCAGCAUUUGUAAUUGUACAUUUAUUCAUCACAACAGAGGAUUGAGCAUCA
B14: chr12:53210768:53210868:-|3pUTR|ENSG00000172819|msi1_unk|total|mutant (ssRNA)
RNA: GGGAGUUCUACAGUCCGACGAUCAGGGGGGAUGCUGCUCCGCUGAUCCCGCCCUGACCCAGAGGAAGCCUCUAUUUAUUUAUCCGCUUUUGUUUACACCGUGGAAUUGACCCCUUCCUCCAGGGGUCUUGGGUGGGGGAGCCCCAACAGAGGAUUGAGCAUCA
B15: chr20:34845330:34845491:-|CDS|ENSG00000131067|control|control|control (ssRNA)
RNA: GGGAGUUCUACAGUCCGACGAUCUGAGUUCACAGAGGAAGAGAUUGAGUUCCUGGAAGCCAGGGGUCACCACGUGGAGAAAGUAGAUGUCUUAUCCUGGGUCCAUGGCAGCCGAAGGACCAACAACUUCAUCAUCGCUGUUAACAACAGAGGAUUGAGCAUCA
B16: chr10:74118697:74119064:+|3pUTR|ENSG00000035403|msi1|total|mutant (ssRNA)
RNA: GGGAGUUCUACAGUCCGACGAUCGAAGAAAUCACAGAAUCAUAUGAUUCUGCUUUUACCAUGCCCCUGAGCAAUGUCUGUGCCCGGGAAACUUCCCGUCCCAUAUCCUGCCUCAGCCCGCCAAGGCCGCCAUCCCAUGAACACCAACAGAGGAUUGAGCAUCA
B17: ENSG00000140391:stop:overlap|stop_codon|ENSG00000140391|stop_codon|NA|stop_codon (ssRNA)
RNA: GGGAGUUCUACAGUCCGACGAUCUGUGCAGAAGGAGUAGAGAUCCUGCUUACGAGCUCCUCAUCACUGGCGGAACCUAUGCAUAGUUGACAACUCAAGCCUGAGCUUUUUGGUCUUGUUCUGAUUUGGAAGGUGAAUUGAGCACAACAGAGGAUUGAGCAUCA
B18: chr10:75150949:75151073:+|CDS|ENSG00000156671|unk|FALSE|unique (ssRNA)
RNA: GGGAGUUCUACAGUCCGACGAUCUGUUCGAAGAUUGGACCCAGAAUACUGGAAGACUAUACUGAGUUGUAUAUAUGUUUUUAUAGUAUUUGGAUUUACAUCUUUCAUUAUGGUUAUAGUCCAUGAGCGAGUGCCUGACAUGCACAACAGAGGAUUGAGCAUCA
B19: chr9:136116483:136116900:-|CDS|ENSG00000238227|control|control|control (ssRNA)
RNA: GGGAGUUCUACAGUCCGACGAUCUUCGACGUGUACAUCAAGACGCGCUGGCUGUACGGCUUCAUCCGCUUCCUACUCUACUUUAGCUGCAGCCUGUUCACUGCGGCGCUCUGGGGUGCGCUGGCCGCCCUCUUCUGCCUACAGCAACAGAGGAUUGAGCAUCA
B20: chr2:112646914:112647020:+|CDS|ENSG00000144136|unk|total|mutant (ssRNA)
RNA: GGGAGUUCUACAGUCCGACGAUCGCUCAUCCUGGGCUUCAUUAUUGCAUUUGUCUUGGCAUUCUCCGUGGGAGCCAAUGAUGCCGCAAAUUCUUUUGGUACAGCUGUGGGCUCAGGUGCCGUGACCCUGAAGCAAGCCUGCAUCAACAGAGGAUUGAGCAUCA
B21: chr3:98797769:98798349:-|3pUTR|ENSG00000057019|msi1|FALSE|unique (ssRNA)
RNA: GGGAGUUCUACAGUCCGACGAUCUUGUUUUUGAUACCUCCUGGCAGCUUCCAUGUCACCACUUGUUCAUACCUGCCCAGAGCUAGUUUUAGACAUGGCAAAAUAGAAAUCAUCUGUAAUUUAUUAGCUAACAAUGUAAAACCACAACAGAGGAUUGAGCAUCA
B22: chr12:13219749:13219850:+|3pUTR|ENSG00000134531|unk|total|mutant (ssRNA)
RNA: GGGAGUUCUACAGUCCGACGAUCACAACAGUGGAUGGGGAGGAAGAACAGACUUUUGAGCUCUUCCCAAUACCGGAAUGUGUCCGUUCUAAAAAUUUUCUUAAGUUGUUUGCUUGGAACUCAGAGUAUAUUUUUCCAUACGAACAACAGAGGAUUGAGCAUCA

Target: MSI1 full-length (mouse, UniProt Q61474 1-362)
UniProt Q61474, sequence (Q61474 whole entry): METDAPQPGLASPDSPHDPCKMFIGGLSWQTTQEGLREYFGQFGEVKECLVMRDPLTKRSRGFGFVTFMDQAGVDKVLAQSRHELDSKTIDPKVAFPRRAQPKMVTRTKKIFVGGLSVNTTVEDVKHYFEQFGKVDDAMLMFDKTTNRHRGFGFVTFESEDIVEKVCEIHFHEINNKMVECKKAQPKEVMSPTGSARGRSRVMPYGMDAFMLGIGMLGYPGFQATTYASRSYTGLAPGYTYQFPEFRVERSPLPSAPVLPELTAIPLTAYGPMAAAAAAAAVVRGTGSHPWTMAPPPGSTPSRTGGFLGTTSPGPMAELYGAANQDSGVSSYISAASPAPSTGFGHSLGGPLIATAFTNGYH
Assay: nsRBNS (natural sequence RNA bind-n-seq); RBNS binding buffer (assumed for nsRBNS): 25 mM Tris pH 7.5, 150 mM KCl, 3 mM MgCl2, 0.01% Triton X-100, 500 ug/ml BSA, 20 U/ml SUPERase-In, 4 C; UNK is unkempt and MSI1 is Musashi-1; names of the RNAs are library labels; protein concentration not given here; high values mean tight binding

Question: How did the binding signal turn out when B1 was run?
Answer: 1.39 enrichment R

Question: For B2, which binding signal is on record?
Answer: 0.615 enrichment R

Question: Which binding signal does the source give for B3 here?
Answer: 0.447 enrichment R

Question: How did the binding signal turn out when B4 was run?
Answer: 0.407 enrichment R

Question: For B5, which binding signal is on record?
Answer: 0.294 enrichment R

Question: Which binding signal does the source give for B6 here?
Answer: 0.311 enrichment R

Question: With B7 as the binder, how does the binding signal read?
Answer: 0.305 enrichment R

Question: Which binding signal does the source give for B8 here?
Answer: 43.6 enrichment R

Question: How did the binding signal turn out when B9 was run?
Answer: 2.64 enrichment R

Question: For B10, which binding signal is on record?
Answer: 0.347 enrichment R

Question: For B11, which binding signal is on record?
Answer: 0.691 enrichment R

Question: For B12, which binding signal is on record?
Answer: 5.74 enrichment R

Question: For B13, which binding signal is on record?
Answer: 0.741 enrichment R

Question: For B14, which binding signal is on record?
Answer: 0.626 enrichment R

Question: B15 was tested. Which binding signal did it give?
Answer: 0.503 enrichment R

Question: B16 was tested. Which binding signal did it give?
Answer: 0.586 enrichment R

Question: With B17 as the binder, how does the binding signal read?
Answer: 1.42 enrichment R

Question: How did the binding signal turn out when B18 was run?
Answer: 0.54 enrichment R

Question: For B19, which binding signal is on record?
Answer: 0.554 enrichment R

Question: B20 was tested. Which binding signal did it give?
Answer: 0.38 enrichment R

Question: B21 was tested. Which binding signal did it give?
Answer: 10.6 enrichment R

Question: B22 was tested. Which binding signal did it give?
Answer: 0.424 enrichment R
